Data from PubChem BioAssay AID1030 (National Center for Advancing Translational Sciences (NCATS), 2008).
Hit rate of the full screen: of about 220,000 compounds, about 16,000 (7.3%) were called active. This list was built around the results that the source calls inconclusive (neither active nor inactive); the mix of calls is not that of the screen. Calls come from the whole dose curve; as a rule, active = well fitted inhibition curve with a large enough effect (not every such curve was filed as active); inconclusive = small, poorly fitted or top-dose-only effect, or another doubt; inactive = no such curve, though single readings can be large or run the other way. Potencies of inconclusive entries are left out as doubtful fits.

Target: Aldehyde dehydrogenase 1A1 (Homo sapiens) (UniProt P00352)
Sequence of UniProt P00352 (P00352 whole entry, looked up): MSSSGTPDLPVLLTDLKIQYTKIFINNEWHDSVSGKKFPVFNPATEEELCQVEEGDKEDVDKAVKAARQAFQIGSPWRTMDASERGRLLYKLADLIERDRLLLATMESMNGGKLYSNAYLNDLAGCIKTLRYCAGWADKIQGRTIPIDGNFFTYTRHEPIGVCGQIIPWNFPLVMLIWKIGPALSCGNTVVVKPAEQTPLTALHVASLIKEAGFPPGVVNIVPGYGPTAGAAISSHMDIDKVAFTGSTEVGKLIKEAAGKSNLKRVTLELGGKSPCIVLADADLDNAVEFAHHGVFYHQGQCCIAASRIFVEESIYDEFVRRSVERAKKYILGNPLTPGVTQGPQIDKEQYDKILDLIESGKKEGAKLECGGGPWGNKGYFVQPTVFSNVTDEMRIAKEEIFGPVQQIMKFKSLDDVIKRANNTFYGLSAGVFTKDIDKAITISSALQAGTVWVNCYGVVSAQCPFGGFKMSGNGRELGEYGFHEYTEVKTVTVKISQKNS
Test: qHTS Assay for Inhibitors of Aldehyde Dehydrogenase 1 (ALDH1A1);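 for activity, negative = inhibition: plate controls were no enzyme wells and a reference inhibitor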
Settings: Purified ALDH1A1, NADH fluorescence, propionaldehyde substrate; series mostly up to 75.3 µM
Potency is the fitted concentration of half-maximal effect; tags give direction and shape of the fitted curve.

SMILES	Potency	activity, negative = inhibition
CC(C)C(NC=C1C(=O)OC(C)(C)OC1=O)C(=O)O (stereo unspecified)	active: 8.91 µM	–
CCOC(=O)c1nc(S(C)(=O)=O)ncc1Cl	inconclusive [inhibitor, single point]	–
Cc1ccc(NC(=S)NCCc2ccc(S(N)(=O)=O)cc2)cc1C	inconclusive [inhibitor, single point]	–
CCCOc1ccc(/C(O)=C2/C(=O)C(=O)N(CCN(C)C)C2c2ccc(OC)c(OC)c2)cc1 (stereo unspecified)	inconclusive [inhibitor, single point]	–
CCn1c(=O)cc(SCC(=O)Nc2cccnc2)c2ccccc21	inconclusive [inhibitor, partial curve]	–
CCC(C(=O)N1CCN(c2ccccc2OC)CC1)c1ccccc1 (stereo unspecified)	active: 39.8 µM	–
CN(C)c1ccc(/C(=N\O)C(F)(F)F)cc1	inconclusive [inhibitor, single point]	–
Cc1cc(C)c(C#N)c(SCC(=O)Nc2nnc(-c3ccccc3)s2)n1	inconclusive [inhibitor, single point]	–
O=C(CSCc1ccc([N+](=O)[O-])cc1)NN=C1CCCCCC1	active: 5.01 µM	–
C[C@@H]1OC(OC2CC[C@@]3(C)C(CC[C@@]4(C)C3CC=C3C5CC(C)(C)CC[C@]5(C(=O)OC5OCC(O)[C@@H](O)[C@@H]5OC5O[C@@H](C)[C@H](O[C@H]6OC(CO)C(O)C(O)C6O)C(O)C5O)C(O)C[C@@]34C)C2(C)C)C(O)C(O)[C@H]1OC1OCC(O)C(O)[C@H]1O (stereo partly specified)	inactive	–
COCCCNCCOCCOc1ccc(C)cc1Br	inconclusive [inhibitor, single point]	–
COc1cc(CNc2ccc(N3CCN(C(C)=O)CC3)cc2)ccc1OCc1ccc(F)cc1	inconclusive [inhibitor, single point]	–
COc1ccc(/C=C/C(=O)c2nc3ccccc3n2CC(=O)c2ccc(OC)cc2)cc1	active: 15.8 µM	–
CC1(C)CC(=O)C=C(NCCc2c[nH]c3ccccc23)C1	inconclusive [inhibitor, single point]	–
CCOC(=O)CCN1C(=O)[C@H]2[C@H]3[C@H](O)[C@H](O)C/C(=N/OCc4ccccc4)[C@@H]3CC[C@@H]2C1=O	–	inactive: -8.59% [at 13.5 µM]
COC(=O)c1ccccc1NC(=O)c1ccc(COc2ccc3c(c2)CCC3)cc1	inconclusive [inhibitor, single point]	–
CN1CCN(c2ncc3nc(-c4ccc(F)cc4)c(=O)n(C4CC4)c3n2)CC1	inconclusive [inhibitor, partial curve]	–
Cc1ccnc(Sc2ccc([N+](=O)[O-])cn2)n1	inconclusive [inhibitor, single point]	–
CSc1cc(-c2ccc(Cl)cc2)c(C(=O)N2CCCC2)s1	inconclusive [inhibitor, single point]	–
COCC(=O)Nc1ccc2c(c1)OCO2	inactive	–
CCc1ccc(NC(=O)COn2nnc3ccc(S(=O)(=O)N(C)C)cc32)cc1	inconclusive [inhibitor, partial curve, poor fit]	–
COCCN1C(=O)N[C@@H](c2cccc(F)c2)C(C(=O)OC)=C1C	–	inactive: 14.8% [at 13.5 µM]

SMILES	Potency	activity, negative = inhibition
Cc1cccn2c(NC(=O)c3cccs3)c(-c3ccccc3)nc12	inactive	–
CC(C)=CCc1c(O)cc(O)c2c1O[C@H](c1ccccc1)CC2=O	inactive	–
CC(C)(CSc1ccccn1)NS(=O)(=O)c1ccccc1	inconclusive [inhibitor, partial curve, poor fit]	–
COc1c(Cl)cc(-c2noc(C)c2C(=O)NCc2ccc3c(c2)OCO3)cc1Cl	active: 0.708 µM	–
NN(CC(=O)O)CC(=O)O	–	inactive: -4.72% [at 13.5 µM]
O=c1cc(CNC2CCCCC2)c2ccccc2[nH]1	inconclusive [inhibitor, partial curve]	–
O=C(O)C1Nc2c(O)cc(Cl)c([N+](=O)[O-])c2C2C=CCC12 (stereo unspecified)	active: 12.6 µM	–
Cc1ccccc1C(=O)NC(CC(C)C)C(=O)OCc1cc(=O)n2cc(Br)ccc2n1 (stereo unspecified)	inactive	–
CN(CC(=O)O)c1ccc(C(F)(F)F)cc1[N+](=O)[O-]	inactive	–
CSc1ccccc1NS(=O)(=O)c1ccc2c(c1)OCCO2	inconclusive [inhibitor, single point]	–
COc1cc(/C=C2\C(=O)NN(c3ccc(C)cc3)C2=O)cc([N+](=O)[O-])c1O	inconclusive [inhibitor, single point]	–
COc1ccc(NC(=O)/C=C/c2ccccc2[N+](=O)[O-])c(OC)c1	inconclusive [inhibitor, single point]	–
CCN(CC)c1cc(C)c(C#N)c2nc3ccccc3n12	inconclusive [inhibitor, partial curve]	–
CC(C)(C)C(=O)NC(c1ccc(Cl)cc1)[C@]1(C)C[C@H]1C1CCCCC1 (stereo partly specified)	inconclusive [inhibitor, single point]	–
CCSc1nc(C2CC2)cc(-c2cccs2)c1C#N	inconclusive [inhibitor, single point]	–
Cc1ccc(OCCN2CCN(c3ncnc4sc(C)c(C)c34)CC2)cc1	inactive	–
N#CCSCC(=O)Nc1ccc(Cl)cc1	inconclusive [inhibitor, partial curve]	–
CCOC(=O)CSc1nnc2n(Cc3ccccc3)c(=O)c3c4c(sc3n12)CCC4	inactive	–
CC(=O)NC(CCS(C)(=O)=O)C(=O)Nc1ccc(C)c(F)c1 (stereo unspecified)	inactive	–
CCCCN1Cc2c(nc3cc(-c4ccccc4)[nH]n3c2=O)C1=O	inconclusive [inhibitor, partial curve]	–
CNc1ccccc1C(=O)N1CCc2c([nH]c3ccccc23)C1=O	inconclusive [inhibitor, partial curve]	–
COC(=O)c1ccccc1NC(=O)c1ccc(COc2cc(C)cc(C)c2)o1	inconclusive [inhibitor, partial curve]	–

SMILES	Potency	activity, negative = inhibition
CC(=O)OC[C@@H]1O[C@@H](O/N=C2/C[C@@H](O)[C@@H](O)[C@@H]3[C@H]4C(=O)N(c5ccc(F)cc5F)C(=O)[C@@H]4CC[C@H]23)[C@H](OC(C)=O)[C@H](OC(C)=O)[C@@H]1OC(C)=O	–	inactive: 0.618% [at 13.5 µM]
CC1(C)NC(=O)N(CCOCCOc2ccc3ccccc3c2Br)C1=O	inactive	–
CC1CCN(CCCOc2ccc(OCc3ccccc3)cc2)CC1	inconclusive [inhibitor, single point]	–
Cc1cc(N2CCN(Cc3cn(C)nc3-c3ccccc3F)CC2)cc(C)n1	inconclusive [inhibitor, single point]	–
O=C(OCC(=O)N1CCN(C(=O)c2ccco2)CC1)c1cc(-c2ccccc2)nc2ccccc12	inconclusive [inhibitor, partial curve]	–
O=C(COC(=O)[C@H](Cc1ccccc1)NC(=O)c1cccs1)NC1CC1	inconclusive [inhibitor, single point]	–
CS(=O)(=O)c1ccc2nc(NC(=O)C3C4C=CC(C4)C3C(=O)O)sc2c1 (stereo unspecified)	active: 5.62 µM	–
CC1CCCN(C(C(=O)Nc2ccc3c(c2)OCCO3)c2ccccc2)C1 (stereo unspecified)	inconclusive [inhibitor, single point]	–
COc1ccccc1C1=NC(c2ccc(C)cc2)N=C1C (stereo unspecified)	inconclusive [inhibitor, single point]	–
N#CCCn1c(=O)c(-c2ccc(F)cc2)nc2cnc(Oc3ccccc3)nc21	inconclusive [inhibitor, single point]	–
COC(=O)c1ccc(CNC(=O)COC(=O)C2CCC(C(C)(C)C)CC2)cc1 (stereo unspecified)	inconclusive [inhibitor, single point]	–
O=C1CCCC/C1=C/NCc1ccc(F)cc1	inconclusive [inhibitor, single point]	–
O=C(CN1C(=O)S/C(=C/c2ccc(N3CCOCC3)cc2)C1=O)N1CCOCC1	inconclusive [inhibitor, single point]	–
COC(=O)CNC(=O)CN1c2cccc3cccc(c23)S1(=O)=O	inconclusive [inhibitor, partial curve]	–
CC(C)c1ccccc1NC(=S)N1CCN(S(=O)(=O)c2cccs2)CC1	inconclusive [inhibitor, partial curve]	–
CN1CCN(c2ncc3nc(CCc4ccccc4)c(=O)n(C4CC4)c3n2)CC1	inconclusive [inhibitor, partial curve]	–
COc1ccc(CNCC(=O)Nc2sccc2C#N)cc1	inconclusive [inhibitor, single point]	–
O=S(=O)(c1ccc(OCC(O)CNCc2ccco2)c(Cl)c1)N1CCOCC1 (stereo unspecified)	inconclusive [inhibitor, single point]	–
O=C(O)c1ccccc1SCC(=O)N1CCc2ccccc21	inconclusive [inhibitor, single point]	–
COc1ccc(C)cc1-n1nnnc1SCC(=O)NNC(=O)c1ccc([N+](=O)[O-])cc1	active: 3.16 µM	–
CN1CCN(CCCNC(=O)c2cc3c(=O)n(C)c4ccccc4c3s2)CC1	inconclusive [inhibitor, single point]	–
COc1ccccc1N1CCN(CC(=O)Nc2sccc2C#N)CC1	inconclusive [inhibitor, partial curve]	–
